Test results reported in publication PMC4336329 (PLoS ONE, 2015).
The whole screen tested about 310,000 compounds, of which about 2,200 (0.71%) showed an effect of 50% or more. Effects have a minus sign here. The list shows a part of the results.

Each compound was assayed against human ether-à-go-go-related gene (hERG) potassium channel (human, UniProt Q12809) (assay: primary screen, population patch clamp on CHO cells stably expressing hERG).
Chain of human ether-à-go-go-related gene (hERG) potassium channel (Q12809 whole entry, looked up): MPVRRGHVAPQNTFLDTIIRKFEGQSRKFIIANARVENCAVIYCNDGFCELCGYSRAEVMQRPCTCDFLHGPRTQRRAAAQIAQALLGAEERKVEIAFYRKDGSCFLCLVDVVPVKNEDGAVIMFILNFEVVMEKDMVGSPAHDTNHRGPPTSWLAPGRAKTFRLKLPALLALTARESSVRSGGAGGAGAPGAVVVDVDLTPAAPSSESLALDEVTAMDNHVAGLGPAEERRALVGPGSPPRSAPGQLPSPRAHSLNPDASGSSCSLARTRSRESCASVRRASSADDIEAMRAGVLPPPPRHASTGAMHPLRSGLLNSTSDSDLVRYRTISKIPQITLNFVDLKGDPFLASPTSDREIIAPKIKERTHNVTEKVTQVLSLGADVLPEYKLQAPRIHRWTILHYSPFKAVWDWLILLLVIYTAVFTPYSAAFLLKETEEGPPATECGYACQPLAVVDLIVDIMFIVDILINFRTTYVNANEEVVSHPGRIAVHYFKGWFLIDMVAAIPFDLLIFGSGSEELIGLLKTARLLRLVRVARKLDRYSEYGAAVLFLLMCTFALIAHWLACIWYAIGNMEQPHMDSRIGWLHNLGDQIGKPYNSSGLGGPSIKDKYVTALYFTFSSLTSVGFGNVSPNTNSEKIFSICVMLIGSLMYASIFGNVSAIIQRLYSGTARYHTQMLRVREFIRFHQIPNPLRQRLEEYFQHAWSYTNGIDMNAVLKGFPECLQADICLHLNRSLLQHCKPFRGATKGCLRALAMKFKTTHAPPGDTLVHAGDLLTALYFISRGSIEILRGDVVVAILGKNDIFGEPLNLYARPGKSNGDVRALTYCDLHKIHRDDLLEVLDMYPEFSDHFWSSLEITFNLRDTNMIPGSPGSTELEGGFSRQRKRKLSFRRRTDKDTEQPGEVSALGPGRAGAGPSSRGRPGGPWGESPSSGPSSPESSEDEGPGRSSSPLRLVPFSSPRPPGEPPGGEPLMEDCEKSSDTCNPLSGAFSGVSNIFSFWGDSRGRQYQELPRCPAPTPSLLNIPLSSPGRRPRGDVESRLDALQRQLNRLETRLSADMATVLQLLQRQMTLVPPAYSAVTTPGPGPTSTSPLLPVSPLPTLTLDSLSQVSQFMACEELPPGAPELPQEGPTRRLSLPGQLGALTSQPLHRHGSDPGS

SMILES	hERG current change (%, negative = inhibition) at 1uM
COC(=O)c1ccc(NC(=O)C(C)N2C(=O)c3ccccc3C2=O)cc1 (stereo not shown)	8.14%
CC(=O)c1c(O)cc(C)n(Nc2nc(C)cc(C)n2)c1=O	4.15%
COC(=O)[C@H]1[C@H]2C[C@H]3c4[nH]c5ccccc5c4CCN3C[C@H]2CC[C@@H]1O.Cl	13.2%
CC(=O)Nc1cc(C)nn1-c1nc2ccccc2s1	8.3%
CN(CCCNC(=O)c1nn(C)c2c1CS(=O)(=O)c1ccccc1-2)Cc1ccccc1	-0.679%
COc1ccc(-c2sc3ccccc3c2C#CC2(O)CCCCC2)cc1	12.7%
COc1ccc(C2=NOC3(CC(=O)N(c4ccc(F)cc4)C3=O)C2)c(OC)c1 (stereo not shown)	11.3%
Cc1cccc2c1ncc1c(=O)n(-c3ccccc3)[nH]c12	10.4%
CCOc1ccc(NC(=O)COc2nsnc2N2CCOCC2)cc1	-12.7%
CCn1cc(Cl)c(C(=O)N2N=C(c3ccc4ccccc4c3)CC2c2ccccc2O)n1 (stereo not shown)	6.54%
CNC(=O)NC(=O)C(OC(=O)Cc1cccc(C(F)(F)F)c1)c1ccccc1 (stereo not shown)	12.5%
COc1nccc(C(F)(F)F)c1C(=O)NC(=O)Nc1c(C)cccc1C	6.68%
COc1ccc(C(=O)NCCNc2ccc([N+](=O)[O-])cn2)cc1	4.69%
Cc1ccc(Nc2ncnc3c2oc2ccccc23)cc1	5.26%
CCCn1c(N2CCN(C(=O)Nc3ccc(Cl)cc3)CC2)nc2ccccc21	7.31%
COc1ccc(/C=N/NC(=O)c2ccncc2)cc1CN1CCOCC1	6.59%
CCC(=O)Nc1ccc(N2CCOCC2)c(S(=O)(=O)Nc2ccc(Cl)cc2)c1	11.9%
CCOC(=O)C(=O)NNc1ccc(C)cc1	6.6%
O=C(/C=C/c1ccco1)Nc1sc2c(c1C(=O)O)CCC2	2.18%
COc1ccc(CC(=O)NCc2nnc(SCC(=O)Nc3nccs3)n2C)cc1	11.5%

SMILES	hERG current change (%, negative = inhibition) at 1uM
CCOC(=O)N1CCC(NC(=O)C(C)n2c3ccccc3c3cnn(C)c(=O)c32)CC1 (stereo not shown)	7.12%
Cc1nnc(NC(=O)CSc2nnc3c(n2)[nH]c2ccc(Br)cc23)s1	18.2%
Cc1cc(NC(=O)C2CC2)ncc1NC(=O)C12CC3CC(CC(C3)C1)C2	6.45%
O=C(COc1ccc(S(=O)(=O)N2CCOCC2)cc1Cl)N1CCCC1	18.8%
Cc1cc2oc(=O)cc(CN3CCCCC3C)c2cc1C (stereo not shown)	1.4%
CC(/C=C/c1cccs1)=C\C(=O)O	24.4%
CC1=NN(C(C#N)c2cccc([N+](=O)[O-])c2)C(C)(C)C1 (stereo not shown)	-6.34%
CC(C)C[C@H](NC(=O)NCc1ccccc1Cl)C(=O)O	5.75%
CN1CCN(c2ccccc2NC(=O)c2sc3ccccc3c2Cl)CC1	8.53%
CCOC(=O)CSc1nnc(-c2ccccc2NC(=O)c2ccccc2)o1	8.72%
COc1cc(/C=N/S(=O)(=O)c2ccccc2)cc(OC)c1O	10.2%
COc1ccc(CCNC(=O)c2ccnc(C(C)(C)C)c2)cc1OC	5.31%
CCC(=O)N1c2ccc(S(=O)(=O)N3CCCC3)cc2CC1C (stereo not shown)	14.2%
CC1=NN(c2ccc([N+](=O)[O-])cc2)C(c2ccccc2)C1 (stereo not shown)	12.5%
CCc1ccc(/C=C\C(=O)N2CCc3ccccc3C2)cc1	16.3%
O=C(Oc1cc(=O)oc2ccccc12)c1cccnc1Cl	13.6%
COc1cccc(-c2nc(CS(=O)(=O)CC(=O)Nc3ccccc3Br)c(C)o2)c1	8.87%
NC(=O)Cn1cnc(-c2ccccc2)c1	11.1%
CN(CCNC(=O)C1(O)c2ccccc2NC(=O)N1c1ccccc1)Cc1ccccc1 (stereo not shown)	0.189%
N#Cc1ccc(N2CCc3ccccc3C2)c([N+](=O)[O-])c1	4.22%

SMILES	hERG current change (%, negative = inhibition) at 1uM
O=C(c1cc(-c2ccccc2)nc2ccccc12)N1CCC2(CC1)OCCO2	5.68%
CCCCN(C)C(=O)C1CCN(Cc2cccnc2)CC1	10.1%
Cc1ccc2c(c1)N(CC(=O)NC1CCCCC1C)C(=O)CO2 (stereo not shown)	4.36%
O=C1CCN(c2ncccc2[N+](=O)[O-])CC1	10.2%
O=S(=O)(NCCc1ccccc1)c1ccccc1	8.41%
N#C/C(=C\c1c(N2CCC(C(N)=O)CC2)nc2ccccn2c1=O)C(=O)NC1CCCCC1	17.3%
Cc1ccc(C(=O)Nc2ccc(S(=O)(=O)N3CCN(C)CC3)cc2)o1	12.8%
O=C(COC(=O)c1ccc(Cl)nc1)Nc1nnc(-c2ccccc2)o1	9.69%
Cc1cc(OCn2ccc(C(=O)O)n2)ccc1Cl	7.87%
O=C(NCc1ccco1)c1ccccc1NS(=O)(=O)c1ccc2c(c1)OCCO2	-3.13%
Cl.O=C(CN1CCCCC1)Nc1cccc(Cl)c1	-9.48%
O=[N+]([O-])/C(=C\Nc1ccc(F)cc1F)S(=O)(=O)c1ccccc1	16.4%
CCN(CC1COc2ccccc2O1)C(=O)CN1C(=O)NC(C)(c2ccc(C)cc2)C1=O (stereo not shown)	3.82%
CCOC(=O)C1=C(C)Nc2ccccc2N=C1NC(=O)c1cccc(S(=O)(=O)N(C)C)c1	10.4%
COc1cccc(C(=O)NCc2cn3ccsc3n2)c1	11.4%
CCS(=O)(=O)N1CCN(C(=O)c2ccco2)CC1	7.95%
CC(C)CCOC(=O)C1C(c2ccccc2)C(C(=O)O)C1c1ccccc1 (stereo not shown)	10.8%
COc1ccc(C(=O)Nc2ccccc2)cc1NC(=O)c1cccs1	-11%
